Not every entry of the source has a single result; some have several. The list is limited to them. An entry can have further records. The values listed for one entry are repeated measurements across runs, samples, wells, individuals or studies. Signs of the kind (2×) stand for listed records that agree.
Tested on: K24384-001-R-PDC complex spheroid growth
Assay: Anticancer human tumor K24384-001-R-PDC patient-derived pancreatic adenocarcinoma cell line growth inhibition [AhR]
Settings: stronger effect = lower value
Text: Multicellular complex tumor spheroid response to aryl hydrocarbon receptor antagonists in combination with a variety of drugs and investigational agents in selected tumor cell lines
The current study was undertaken to assess response to aryl hydrocarbon receptor antagonists in combination with standard-of-care drugs and investigational agents in solid tumor complex spheroid models. Complex spheroids include a stromal component modeled by human endothelial cells (HUVEC) and fibroblasts modeled by human mesenchymal stem cells (MSCs). The concentration ranges selected for each drug and investigational agent were based upon clinically achievable concentrations if the clinical Cmax of the agent was known.
Compounds. The drugs and investigational agents: BAY 2416964 (NSC825713), GNF351 (NSC835774), CH-223191 (NSC835775), CPI-455 (NSC825282), aza-TdCyd (NSC777586), decitabine (NSC127716), belinostat (NSC758774), entinostat (NSC756642), pevonedistat (NSC761192), tazemetostat (NSC777109), talazoparib (NSC765396), olaparib (NSC753686), selinexor (NSC780203), nedisertib (M3814, NSC802822), bortezomib (NSC756655), venetoclax (NSC766270), doxorubicin (NSC123127), elimusertib (BAY189344, NSC800525), ceralasertib (AZD6738, NSC777638), TAK-243 (NSC785004), alisertib (NSC759677), etoposide (NSC141540), topotecan (NSC609699), eribulin (NSC707389), gemcitabine (NSC613327), carboplatin (NSC241240), cisplatin (NSC119875), and SN-38 (NSC673596) were obtained from the National Cancer Institute (NCI) Developmental Therapeutics Program Chemical Repository (32). The FDA-approved anticancer drug set is available from the Developmental Therapeutics Program at https://dtp.cancer.gov/organization/dscb/obtaining/available plates.htm. […] The stock solutions were prepared in dimethyl sulfoxide (DMSO, Sigma-Aldrich, St. Louis, MO, cat. D2650), except for the platinum compounds which were prepared in saline (Quality Biological, Gaithersburg, MD, cat. 114-055-101), at 800-fold the tested concentration and stored at -70 degrees C prior to their use. All drugs and investigational agents were tested over a range starting from a high concentration at or near the clinical Cmax and decreasing in half-log increments. If the clinical Cmax for an agent had not been determined, the highest concentration tested was 10 microM (Table 1).
Cell Culture. All cells were maintained in an incubator at 37 degrees C and 5% CO2 with 95% humidity. The PDC lines were cultured according to standard operating procedures established by the NCI PDMR (https://pdmr.cancer.gov). Briefly, all PDCs were thawed and cultured in Matrigel-coated flasks prepared with a working solution of 1X Ham's F-12 nutrient mix, without supplementation (Invitrogen, Waltham, MA, cat. 11765054), 100 U/mL penicillin-streptomycin (Invitrogen, cat. 15140122), and 2.5% Matrigel (Corning Inc., Corning, NY, cat. 354248) for the first three passages. All PDCs were cultured in complete DMEM/F-12 media containing advanced DMEM/F-12 (Invitrogen, cat. 12634028), 4.9% defined fetal bovine serum, heat inactivated (HyClone Laboratories Inc., Logan, UT, cat. SH30070.03HI), 389 ng/mL hydrocortisone (Sigma-Aldrich, cat. H4001), 9.7 ng/mL human EGF recombinant protein (Invitrogen, cat. PHG0313), 23.4 microg/mL adenine (Sigma-Aldrich, cat. A2786), 97.3 U/mL penicillin-streptomycin (Invitrogen, cat. 15140122), 1.9 mM L-glutamine (Invitrogen, cat. 25030081), and 9.7 microM Y-27632 dihydrochloride (Tocris Bioscience, Bristol, United Kingdom, cat. 1254). The PDCs were cultured in complete DMEM/F12 media without 10 microM Y-27632 dihydrochloride for at least two passages prior to the screen. The established cell lines NCI-H1341 and […] were cultured in DMEM/F-12, HEPES (Invitrogen, cat. 11330032), 5% defined fetal bovine serum (HyClone Laboratories Inc., cat. SH30070.03), ITS premix universal culture supplement [insulin (5 microg/mL), transferrin (5 microg/mL), and selenious acid (5 ng/mL)] […]
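Also: percent of DMSO vehicle-treated spheroid viability set as 100%.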

Structure (SMILES): Cc1ccccc1N=Nc1ccc(NC(=O)c2ccnn2C)c(C)c1
- viability, T/C (compound alone 0.1 µM): 102, 103, 87.8, 86.9, 95, 101 (2×), 94.3, 92.5, 104, 80.9, 108, 86.4, 95.9, 84.6, 88.7, 106, 86.5, 91.7%
- viability, T/C (compound alone 0.316 µM): 126, 102, 95.9, 89.2, 82.3, 85.1, 103 (2×), 100, 81.3, 75.4, 111, 108, 85.6, 90, 101, 116, 97.7, 87.1, 87.2%
- viability, T/C (compound alone 1 µM): 110, 92, 98.4, 92.7, 99.7, 109 (2×), 85.7, 103, 87, 93.6, 94.8, 88.4, 97.8, 116, 96.2, 91, 88.8, 79.8, 93.3%
- viability, T/C (compound alone 3.16 µM): 103 (2×), 86.5, 90.8, 89.9, 67.4, 100, 88.1, 78.6, 66.6, 86.2, 110, 87.5, 75.5, 73.5, 114, 88.4, 77.3, 63.5, 71.7%
- viability, T/C (compound alone 10 µM): 127, 76.7, 110, 96.2, 71, 119, 114, 79.9, 79.3, 80, 118, 99.7, 76, 87.5, 111, 125, 80.7, 91.2, 78.8, 86.9, 123%

Structure (SMILES): CC(CO)NC(=O)c1cc(-c2ccc(Cl)cc2)nn(-c2cnn(C)c2)c1=O (centres undefined)
- viability, T/C (compound alone 0.1 µM): 98.7, 105, 97.9, 103 (2×), 93.7, 90.6, 90.2, 84.8, 108, 93.3, 93.6, 88.4, 85.5, 83.1, 83.2, 93.8, 71.4, 94.8, 89.4%
- viability, T/C (compound alone 0.316 µM): 95.2, 106 (2×), 98.8, 93.8, 96.8, 84.4, 84, 85.3, 72, 103, 98, 94, 81.1, 117, 89.3, 96.2, 108, 83.6, 111, 92.8%
- viability, T/C (compound alone 1 µM): 75.6, 98, 85.2, 93.7, 93.2, 88.9, 82.5, 79.3, 78, 95 (2×), 98.9, 94.8, 106, 73.5, 96.5, 99.2, 110, 115, 82.8, 79.1%
- viability, T/C (compound alone 3.16 µM): 71.5, 83.6, 95.1, 85.3, 78.5, 68.2, 82.9, 73.7, 94.9, 105, 96.6, 97.6, 82.8, 115, 116, 89.5, 111, 75, 102%
- viability, T/C (compound alone 10 µM): 73.9, 61.1, 94.4, 110, 74.4, 58.2, 74.9, 74.8, 90.6, 98.1, 83, 103 (2×), 62.3, 98.7, 98.4, 92.2, 72.9, 91.8%

Structure (SMILES): Cc1cncc(-c2nc(NCCc3c[nH]c4ccccc34)c3ncn(C(C)C)c3n2)c1
- viability, T/C (compound alone 0.1 µM): 99.4, 85.1, 96.9, 103 (2×), 106, 93.8, 97, 100, 77.7, 110, 104, 94, 86.3, 96.2, 122, 107, 87, 93.7, 92.3%
- viability, T/C (compound alone 0.316 µM): 104 (2×), 86.6, 79, 82.2, 82.9, 115, 122, 90.6, 96.2, 118, 101, 108, 76.8, 114, 127, 124, 102, 94.8, 99.4%
- viability, T/C (compound alone 1 µM): 87, 93.2, 106, 91.7, 147, 109, 116, 110, 98.4, 108 (2×), 125, 99, 99.2, 94.8, 145, 135, 104, 95, 102%
- viability, T/C (compound alone 3.16 µM): 80.6, 77.9, 74.9, 75.3, 137, 71.5, 112, 108, 90.3, 86.6, 117, 88.5, 113, 79.4, 107, 96.7, 33.5, 69.5, 89.8, 68.6%

Source: PubChem BioAssay AID1919009 (Molecular Pharmacology Branch, DTP, NCI, 2023)
